Measurements taken from publication PMC4336329 (PLoS ONE, 2015).
Among all 310,000 compounds or so, about 2,200 (0.71%) showed an effect of 50% or more. The effect is printed as a negative number. The list shows a part of the results.

target: human ether-à-go-go-related gene (hERG) potassium channel (human, UniProt Q12809); experiment: primary screen, population patch clamp on CHO cells stably expressing hERG
Sequence (Q12809 whole entry, looked up): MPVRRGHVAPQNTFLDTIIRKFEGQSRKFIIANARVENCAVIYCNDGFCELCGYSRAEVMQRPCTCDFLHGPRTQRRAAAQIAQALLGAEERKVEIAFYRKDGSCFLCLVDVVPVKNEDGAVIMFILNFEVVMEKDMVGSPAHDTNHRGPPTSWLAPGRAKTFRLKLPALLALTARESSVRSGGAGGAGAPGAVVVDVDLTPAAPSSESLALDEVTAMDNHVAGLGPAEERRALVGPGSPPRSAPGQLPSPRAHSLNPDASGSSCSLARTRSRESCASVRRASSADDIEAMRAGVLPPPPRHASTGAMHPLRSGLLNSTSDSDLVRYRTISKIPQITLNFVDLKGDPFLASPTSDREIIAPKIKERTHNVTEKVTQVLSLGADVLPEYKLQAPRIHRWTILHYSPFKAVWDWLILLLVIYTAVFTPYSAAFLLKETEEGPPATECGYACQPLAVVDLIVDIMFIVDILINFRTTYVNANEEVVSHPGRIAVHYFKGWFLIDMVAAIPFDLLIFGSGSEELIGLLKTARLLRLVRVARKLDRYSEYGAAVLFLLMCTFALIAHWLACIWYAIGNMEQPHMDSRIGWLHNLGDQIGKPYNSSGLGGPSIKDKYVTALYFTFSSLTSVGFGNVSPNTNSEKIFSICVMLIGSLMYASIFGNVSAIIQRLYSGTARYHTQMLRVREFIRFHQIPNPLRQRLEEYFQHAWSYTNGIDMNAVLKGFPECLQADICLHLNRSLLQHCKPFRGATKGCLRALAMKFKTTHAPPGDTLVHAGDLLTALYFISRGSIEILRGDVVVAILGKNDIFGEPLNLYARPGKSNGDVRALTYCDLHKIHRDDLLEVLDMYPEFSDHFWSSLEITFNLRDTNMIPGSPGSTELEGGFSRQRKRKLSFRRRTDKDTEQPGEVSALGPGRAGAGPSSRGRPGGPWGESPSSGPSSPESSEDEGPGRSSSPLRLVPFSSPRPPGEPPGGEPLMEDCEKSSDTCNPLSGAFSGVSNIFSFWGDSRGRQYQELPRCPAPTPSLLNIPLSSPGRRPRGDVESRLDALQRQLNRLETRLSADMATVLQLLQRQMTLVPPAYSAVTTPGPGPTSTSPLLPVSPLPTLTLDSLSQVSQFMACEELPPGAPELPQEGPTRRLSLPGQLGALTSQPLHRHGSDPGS

Row | Structure (SMILES) | hERG current change (%, negative = inhibition) at 1uM
1 | COc1ccc(NC(=O)Cc2ccc(C)cc2)cc1S(=O)(=O)N1CCCCC1 | 7.71%
2 | Cc1ccc(C(=O)OCC(=O)NC2CCCc3ccccc32)o1 (stereo not drawn) | 8.97%
3 | CC(C)(C)C(=O)Nc1ccc(C(=O)NCc2cccnc2)cc1 | -7.1%
4 | COc1ccc(OC)c(C(=O)COC(=O)c2ccccc2O)c1 | 4.9%
5 | COCCNC(=O)c1cnn2c(C(F)F)cc(-c3ccc(C)cc3)nc12 | 2.03%
6 | CCc1ccc2c(c1)cc(CN(C(=S)Nc1ccccc1C)C1CC1)c1nnnn12 | 3.24%
7 | Cc1ccc(S(=O)(=O)c2nc(S(=O)(=O)c3ccc(C)cc3)c(NCc3ccco3)s2)cc1 | 4.27%
8 | NS(=O)(=O)c1ccc(CNC(=O)/C=C/c2ccco2)cc1 | 10.1%
9 | Cc1ccc2nc(SCC(=O)Nc3ccc4c(c3)CCC4)[nH]c2c1 | 9.49%
10 | CCOc1ccc2nc(SCC(=O)NC(=O)NCc3ccco3)[nH]c2c1 | -0.64%
11 | C=CCOc1ccc(/C=N/n2nnnc2N)cc1OC | 14%
12 | Cc1ccc(Cn2cc(S(=O)(=O)c3ccc(Cl)cc3)c(=O)c3cc(F)ccc32)cc1 | 14.5%
13 | O=C(O)c1cccc(-c2ccc(/C=N/n3cnc4sc5c(c4c3=O)CCCC5)o2)c1 | 10.5%
14 | Nc1nc(Cl)cc(NCCc2ccccc2)n1 | 13.5%
15 | O=C(NC(=S)Nc1ccccc1N1CCCCC1)c1ccccc1 | 13.5%
16 | N#CC1=C(N)Oc2cc3ccccc3cc2C1c1cccnc1 (stereo not drawn) | 13.6%
17 | CCOC(=O)c1[nH]c(C)c(C(=O)N(C)C)c1C | 8.79%
18 | CCOC(=O)c1ccccc1NC(=O)c1cn(-c2ccc(OC)cc2)c(=O)c2ccccc12 | 0.516%
19 | O=C(N/N=C\c1ccc(Oc2ccccc2)cc1)c1csnn1 | -27.9%
20 | COc1ccc(C/C(C)=N/Nc2nc(C)cc(=O)[nH]2)cc1 | 13.4%
21 | N#Cc1ccc(C23CC4(C2)[C@H](CN(Cc2cccnc2)[C@@H]4c2ccccc2)C3c2ccccc2)cc1 (stereo partly drawn) | 8.25%
22 | C=CCn1c(SCC(N)=O)nc2nc3c(cc2c1=O)COC(C)(C)C3 | 7.81%
23 | CCOC(=O)c1c(C)[nH]c(C(=O)COC(=O)c2cnccn2)c1C | 8.48%

Row | Structure (SMILES) | hERG current change (%, negative = inhibition) at 1uM
24 | O=C(O)C1CCN(C(=O)OCc2ccccc2)CC1 | 16.7%
25 | COc1cccc(CNC(=O)C2CCN(S(=O)(=O)N3CCC(C)CC3)CC2)c1 | 12%
26 | Cc1ccc(C(=O)NCC(C)(C)O)cc1 | 13.3%
27 | CC(=O)c1c(C)[nH]c(C(=O)OCC(=O)N2CCc3ccccc32)c1C | 10.5%
28 | Cc1ccc(NC(=S)N(C)C)cc1C | 2.58%
29 | CC(=O)c1cccc(NCC(=O)Nc2cc(S(=O)(=O)N3CCCCC3)ccc2C)c1 | 7.1%
30 | COc1cccc(/C=C2\SC(=S)N(CCC(=O)N3CCCCC3CCO)C2=O)c1 (stereo not drawn) | 9.11%
31 | O=C1NC(NS(=O)(=O)c2ccccc2)(C(F)(F)F)C(=O)N1CCc1ccccc1 (stereo not drawn) | 15%
32 | O=C(NC1C2CC3CC(C2)CC1C3)C1CC1 (stereo not drawn) | 2.6%
33 | CSc1ccc(/C=C(/NC(=O)c2ccco2)C(=O)NCc2ccco2)cc1 | 6.83%
34 | CCc1ccc(S(=O)(=O)NCCc2csc(C)n2)s1 | 19.6%
35 | Cc1ccc(N2C(=O)CC(Cc3cccc(C)c3)C2=O)cc1 (stereo not drawn) | 16.7%
36 | Cn1c(O)c(C=NCCN2CCNCC2)c(=O)[nH]c1=O | 19.4%
37 | COc1ccc(CN2C(=O)C(O)(CC(=O)c3c(C)n[nH]c3C)c3ccccc32)cc1OC (stereo not drawn) | 13.4%
38 | COc1cccc2sc(N(CCCN(C)C)C(=O)c3ccc(S(=O)(=O)N4CCCc5ccccc54)cc3)nc12.Cl | -3.09%
39 | CC(=O)c1c(C)nc2ccc([N+](=O)[O-])cc2c1-c1ccccc1 | 10.7%
40 | COc1ccc(N2C(=O)C3CCCN3C2c2ccc(C)cc2)cc1Cl (stereo not drawn) | 8.9%
41 | Cn1c(=O)cc(C(=O)N/N=C/c2ccc(Cl)cc2)[nH]c1=O | 13.8%
42 | CC1=NN(C(N)=S)C(=O)C1N=Nc1cccc(C(=O)O)c1 (stereo not drawn) | 16.7%
43 | O=C(Cn1nnc2ccccc21)c1cccc([N+](=O)[O-])c1 | 18.5%
44 | CCCCCCCC1(C)NC(=O)N(CC(=O)Nc2cc(C)on2)C1=O (stereo not drawn) | -11.7%
45 | COc1cccc2cc(-c3nc4ccccc4o3)c(=O)oc12 | 12.8%
46 | COC(=O)c1ccccc1NC(=O)CSc1nc(O)c(-c2ccccc2)c(=O)[nH]1 | -5.57%

Row | Structure (SMILES) | hERG current change (%, negative = inhibition) at 1uM
47 | CC(C)OCCCNCC(O)c1ccccc1 (stereo not drawn) | 5.47%
48 | CCN(CC(=O)Nc1cc(S(=O)(=O)N2CCOCC2)ccc1Cl)Cc1ccccc1 | 10.7%
49 | COc1ccc(-c2noc(CNS(=O)(=O)c3ccc(NC(C)=O)cc3)n2)cc1OC | 12.4%
50 | CCNc1c(NC(=O)c2cccs2)c(=O)oc2ccccc12 | 12.7%
51 | CCOC(=O)C(C(=O)OCC)C1OC(=O)c2cc3c(cc21)C(=O)OC3C(C(=O)OCC)C(=O)OCC (stereo not drawn) | 11.9%
52 | CCCCN(CC)C(=O)c1cc2cc3ccc(OC)cc3nc2o1 | -1.08%
53 | CCC(=O)N(C)C(c1ccccc1Cl)c1nnnn1-c1c(C)cccc1C (stereo not drawn) | 15.6%
54 | COC(=O)CCCNC(=O)c1ccc(S(=O)(=O)NCc2ccco2)cc1 | 10.7%
55 | CC1CCCCN1CC(O)COCCC12CC3CC(CC(C3)C1)C2.Cl (stereo not drawn) | -24.9%
56 | C=CCC1C=C(Cc2ccccc2)CC(CC=C)N1.Cl (stereo not drawn) | -5.71%
57 | CCn1c(C)nc2cc(C(=O)N=Nc3c(O)[nH]c4ccccc34)ccc21 | 0.2%
58 | Cc1ccc(S(=O)(=O)N2CCOCC2)cc1NC(=O)CSc1n[nH]c(N)n1 | -1.25%
59 | Cc1cc(SCC(=O)c2ccccc2)n2nc(C)nc2n1 | 10.4%
60 | Cc1ccccc1C(=O)NC(Oc1ccccc1)C(Cl)(Cl)Cl (stereo not drawn) | -5.34%
61 | COc1ccc(NCC(=O)N/N=C/C2CCCCC2)cc1 | 7.51%
62 | C=CCn1c(Sc2ncc([N+](=O)[O-])s2)n[nH]c1=O | 15.4%
63 | Cc1ccccc1NC(=S)N(CCCN1CCOCC1)Cc1cccs1 | -21.5%
64 | CCN(CC)C(=O)C1CCCN(C/C(C)=C/c2ccccc2)C1 (stereo not drawn) | -1.52%
65 | O=C(CCS(=O)(=O)c1ccc(Cl)cc1)N1CCCc2ccccc21 | 10.4%
66 | Clc1ccc(-c2ccc(/C=N/Nc3cc(N4CCOCC4)nc(N4CCOCC4)n3)o2)cc1 | 8.08%
67 | C=C(C)c1cccc(C(C)(C)NC(=O)N2CCCC(C(N)=O)C2)c1 (stereo not drawn) | 0.506%
68 | COc1ccc(C2OC(=O)Cc3cc(OC)c(OC)cc32)cc1 (stereo not drawn) | 18.2%
69 | CCOC(=O)c1nnn(CC(=O)NC(=O)Nc2ccc(F)cc2)c1C(=O)OCC | 0.0893%

Row | Structure (SMILES) | hERG current change (%, negative = inhibition) at 1uM
70 | Cc1cc(NS(=O)(=O)c2c(C)[nH]c(=O)[nH]c2=O)ccc1Br | 13.1%
71 | CCN(CC)CCCOc1ccc(Cl)c(Cl)c1 | -7.89%
72 | O=C(CSC(=S)N1CCCC1)N(Cc1nnc(-c2ccccc2Cl)o1)C1CC1 | 2.76%
73 | CCOc1ccccc1NC(=O)CC(O)(C(F)(F)F)C(F)(F)F | 3.29%
74 | Cc1nn(C)c(C)c1S(=O)(=O)N(CC(=O)NCc1ccco1)c1ccc(C(C)C)cc1 | 17.1%
75 | O=c1cc[nH]c2c(Cl)cccc12 | 10.1%
76 | CCc1cccc(NC(=O)CN(C)S(=O)(=O)c2cccs2)c1 | 12.1%
77 | CC(C)c1ccc(N2C(=O)CC(NNC(=O)c3ccccc3Cl)C2=O)cc1 (stereo not drawn) | 12.5%
78 | Cc1c(C(=O)N2CCCCC2C)sc2nc3n(c(=O)c12)CCC3 (stereo not drawn) | 14.3%
79 | COCCCn1c(=O)c2ccccc2n2c(=S)[nH]nc12 | 16.2%
80 | COc1ccccc1C(=O)N/C(=C\c1ccccc1)C(=O)NC(C)C(=O)O (stereo not drawn) | 15.6%
81 | O=C(c1ccc2nc(N3CCOCC3)sc2c1)N1CCN(C(=O)c2ccco2)CC1 | -5.7%
82 | COc1ccccc1Nc1nnc(SCC(=O)NC(=O)Nc2ccc3c(c2)OCCO3)s1 | 8.57%
83 | Cc1ccc(CC(=O)N2CCN(C(=O)C3CCCO3)CC2)cc1 (stereo not drawn) | -3.38%
84 | O=S(=O)(c1ccc(Cl)s1)N1CCN(Cc2ccccc2)CC1 | 0.185%
85 | Cc1ccc(O)c(NC(=O)CCC2CCCCC2)c1 | 8.17%
86 | COc1cccc(-c2nnc(SCC(=O)N3CC(C)CC(C)C3)o2)c1 (stereo not drawn) | -2.54%
87 | Cc1ccc(C)c(NC(=O)/C(C#N)=C/c2ccc[nH]2)c1 | 15.7%
88 | COC(=O)Cc1c(O)ccn(CCc2c[nH]c3ccccc23)c1=O | 9.51%
89 | O=C(CC(NS(=O)(=O)c1ccc(Cl)cc1)c1ccco1)N1CCc2ccccc21 (stereo not drawn) | 0.481%
90 | CN(Cc1cccnc1)C(=O)CC1C(=O)NCCN1CC(c1ccccc1)c1ccccc1 (stereo not drawn) | 3.94%
